According to ChEMBL document CHEMBL4888484, “Replenishing the malaria drug discovery pipeline: Screening and hit evaluation of the MMV Hit Generation Library 1 (HGL1) against asexual blood stage Plasmodium falciparum ,using a nano luciferase reporter read-out” (2022):
Among all 150,000 compounds or so, about 540 (0.36%) showed an effect of 50% or more. Some of the results follow.

These compounds were tested on Plasmodium falciparum (assay: Primary screen in NF54 nanoGlo assay, in single point, at 2uM, 72h; a lower Z score goes with more inhibition). Conditions: timepoint 72 hour.
Format: functional, Erythrocyte

Question: `O=C(Nc1nnc2ccccn12)c1cc2c(s1)CCC2` was tested. Which “% Inhibition” value did it give?
Answer: Its value is -22%.

Question: What about the Z score of the same compound?
Answer: The Z score was 2.2.

Question: Which results are given for `COc1cc(-c2ccnc3c2ccn3C)nc(N)n1`?
Answer: % Inhibition: 0%; Z score: -0.07

Question: `Cn1nc(-c2ccccc2)c(CN(CC2CC2)C(=O)c2ccco2)c1Oc1ccc(Cl)cc1` was tested. Which “% Inhibition” value did it give?
Answer: Its value is 12%.

Question: And the Z score?
Answer: Its Z score is -1.58.

Question: With `Cc1cc2c(cc1S(=O)(=O)N1CCC[C@H](C(=O)Nc3cccc4c3CCCC4)C1)OCC(=O)N2` as the compound, how does the “% Inhibition” value read?
Answer: The value was -5%.

Question: And the Z score?
Answer: The Z score was 0.64.

Question: What does the source list for `CCc1ccc([C@@H]2CNCCN2S(=O)(=O)c2cnc3onc(CC)c3c2)cc1`?
Answer: % Inhibition: 3%; Z score: -0.46

Question: How did the “% Inhibition” value turn out when `COCCOc1nc(-c2cccc(OC)c2)n(-c2cccc(NC(=O)c3cccc(OC)c3)c2)n1` was run?
Answer: Its value is -12%.

Question: And the Z score?
Answer: Its Z score is 1.24.

Question: Which “% Inhibition” value does the source give for `CCN(CC)CCC[C@H](C)NC(=O)c1cc(C)c2c(-c3ccccc3)nn(-c3cccc(F)c3)c2n1` here?
Answer: Its value is -14%.

Question: What about the Z score of the same compound?
Answer: Its Z score is 1.27.

Question: `O=S(=O)(Nc1ccc(O)cc1)c1cc(-c2nnc(-c3ccccc3)o2)ccc1F` was tested. Which “% Inhibition” value did it give?
Answer: The value was -3%.

Question: What about the Z score of the same compound?
Answer: Its Z score is 0.55.

Question: Which “% Inhibition” value does the source give for `CN(c1cccc(NC(=O)c2ccc(F)cc2)c1)S(C)(=O)=O` here?
Answer: The value was 0%.

Question: What about the Z score of the same compound?
Answer: The Z score was 0.

Question: Which results are given for `COc1ccc(CCNC(=O)c2cccc(NS(=O)(=O)c3ccc(F)c(Cl)c3)c2)cc1OC`?
Answer: % Inhibition: -7%; Z score: 1.37

Question: How did the “% Inhibition” value turn out when `c1cc(C2CCCC2)nc(N2CCC3(CCO3)CC2)n1` was run?
Answer: The value was 1%.

Question: And the Z score?
Answer: Its Z score is -0.13.

Question: Which “% Inhibition” value does the source give for `O=C([C@H]1CCc2nnnn2CC1)N(CCc1ccccc1)C1CC1` here?
Answer: Its value is -14%.

Question: And the Z score?
Answer: The Z score was 1.54.

Question: With `COCCN1C[C@]2(CCCN(C(=O)c3cn(C)cn3)C2)CCC1=O` as the compound, how does the “% Inhibition” value read?
Answer: Its value is 4%.

Question: What about the Z score of the same compound?
Answer: Its Z score is -0.77.

Question: For `CC(=O)c1nc2cc(F)c(N3CCOCC3)cc2nc1C`, which “% Inhibition” value is on record?
Answer: The value was 32%.

Question: What about the Z score of the same compound?
Answer: Its Z score is -4.07.

Question: Which results are given for `CCOCc1nnc2n1CCN(C(=O)OC(C)(C)C)C(C)(C)C2`?
Answer: % Inhibition: 1%; Z score: -0.18

Question: With `C[C@@]1(C(=O)NCCc2nc3ccccc3c(=O)[nH]2)CCCCO1` as the compound, how does the “% Inhibition” value read?
Answer: The value was -11%.

Question: What about the Z score of the same compound?
Answer: The Z score was 2.11.

Question: `Cc1nc2ncnn2c(N2CC[C@]3(CCOC3)C2)c1C` was tested. Which “% Inhibition” value did it give?
Answer: Its value is -12%.

Question: What about the Z score of the same compound?
Answer: Its Z score is 2.15.

Question: How did the “% Inhibition” value turn out when `O=C(NCCc1cccs1)NC1CCC2(CCOCC2)CC1` was run?
Answer: The value was -11%.

Question: And the Z score?
Answer: The Z score was 1.05.

Question: What does the source list for `Cc1nn(C)c(C)c1CCCNC(=O)c1cccc(O)c1C`?
Answer: % Inhibition: -1%; Z score: 0.14

Question: For `COc1ccc(-c2nc3c([nH]2)CCN(C(=O)[C@@H](C)CN2CCCC2)C3)cc1`, which “% Inhibition” value is on record?
Answer: Its value is -10%.

Question: And the Z score?
Answer: Its Z score is 1.83.

Question: With `COc1cccc(CNC(=O)Cn2cc(-c3ccccc3)c3ncnc(N4CCOCC4)c32)c1` as the compound, how does the “% Inhibition” value read?
Answer: Its value is -7%.

Question: What about the Z score of the same compound?
Answer: The Z score was 1.01.

Question: How did the “% Inhibition” value turn out when `CC1CCC(NC(=O)c2csc3c2CCCC3)CC1` (stereo unspecified) was run?
Answer: Its value is -15%.

Question: And the Z score?
Answer: Its Z score is 1.89.

Question: Which results are given for `c1cc(CCNc2nc(C3CCCC3)nc3c2CCOCC3)ccn1`?
Answer: % Inhibition: 4%; Z score: -0.39
